Some of the results follow. The main result of the screen is listed elsewhere. These columns were measured beside it and carry no call. Most of these compounds were active or inconclusive in the main read-out, so they are no random draw.
Each compound was assayed against Chromobox protein homolog 7 (Homo sapiens) (UniProt O95931) (assay: CBX7 chromodomain binding inhibitors, primary screen, biochemical, AlphaScreen (AID 1224903)). Conditions: AlphaScreen His6-CBX7 / biotin-H3K27me3 peptide binding; measured here: z-score of CBX7 signal; stronger effect = lower value.
Sequence of UniProt O95931 (O95931 whole entry, looked up): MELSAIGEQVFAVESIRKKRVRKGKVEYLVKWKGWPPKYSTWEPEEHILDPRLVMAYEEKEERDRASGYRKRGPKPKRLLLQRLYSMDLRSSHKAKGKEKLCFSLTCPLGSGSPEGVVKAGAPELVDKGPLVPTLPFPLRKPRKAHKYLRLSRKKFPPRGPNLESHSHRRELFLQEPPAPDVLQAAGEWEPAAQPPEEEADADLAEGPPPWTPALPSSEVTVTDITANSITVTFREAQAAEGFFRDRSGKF

| Structure (SMILES) | z-score |
| --- | --- |
| COc1cccc(Nc2nc(-c3ccccc3F)nc3ccccc23)c1 | -0.882 |
| CCCCN(C)S(=O)(=O)c1ccc(C(=O)Nc2nc(-c3ccccn3)cs2)cc1 | -1.07 |
| Cc1cccc(OCc2nc(C#N)c(NCc3ccc4c(c3)OCO4)o2)c1 | -10.3 |
| COc1ccc(C)cc1S(=O)(=O)NCCc1c(C)[nH]c2ccc(C)cc12 | -0.593 |
| Cc1nnc(NC(=O)c2ccc(S(=O)(=O)N3CCC(C)CC3)cc2)o1 | -1.29 |
| Cc1c(C)n(CC(O)CNc2ccccc2)c2ccccc12 (stereo not drawn) | -4.91 |
| CC(C)n1cnc2cc(NCc3ccccn3)ccc21 | -22.2 |
| c1ccc(CN2CCC(NCCc3ccc4c(c3)OCO4)CC2)cc1 | -1.45 |
| CCOC(=O)c1cnc2ccc(C)cc2c1Nc1ccc(N(CC)CC)cc1 | -6.3 |
| Fc1ccc(-c2csc(Nc3ccc4c(c3)OCO4)n2)cc1 | -6.8 |
| Cc1ccc2nc(-c3ccccn3)c(Nc3ccccc3)n2c1 | -19.2 |
| COCCN(CCOC)S(=O)(=O)c1ccc(C(=O)Nc2nnc(-c3ccc(F)cc3)o2)cc1 | -4.29 |
| CC1CC(C)CN(S(=O)(=O)c2ccc(C(=O)Nc3nnc(-c4ccc(Cl)s4)o3)cc2)C1 (stereo not drawn) | -6.82 |
| Cc1ccc(OCCN2CCN(c3ccc(C)c(C)c3)CC2)cc1 | -11.8 |
| COc1ccc(Nc2c(-c3ccccn3)nc3cc(C)ccn23)cc1 | -29.5 |
| Cc1ccc(Cn2cc(C(=O)c3ccccc3)c(=O)c3cc(C)ccc32)cc1 | -1.98 |
| COc1ccc(NC(=O)[C@H](Cc2ccccc2)N2Cc3ccccc3C2=O)cc1Cl | -1.94 |
| CCCCN(CC)S(=O)(=O)c1ccc(C(=O)Nc2nnc(C)o2)cc1 | -1.29 |
| Cc1cccc2nc(-c3ccccn3)c(Nc3ccc4c(c3)OCCO4)n12 | -21.6 |
| COc1ccccc1Nc1nc(-c2c(C)nc3sccn23)cs1 | -13.5 |
| CCCc1noc(-c2cc(-c3ccncc3)nc3ccccc23)n1 | -6.36 |
| CC1CN(S(=O)(=O)c2ccc(C(=O)Nc3nnc(-c4ccc(F)cc4)o3)cc2)CC(C)O1 (stereo not drawn) | -4.35 |

| Structure (SMILES) | z-score |
| --- | --- |
| CCOc1ccc(N2C(=O)c3cccnc3C2Nc2ccc(Br)c(C)c2)cc1 (stereo not drawn) | -10.7 |
| N#Cc1nc(COc2ccc(Br)cc2)oc1N1CCCC1 | -27.4 |
| CCOc1ccc(Nc2nc(-c3sc(NC(=O)CC)nc3C)cs2)cc1 | -0.641 |
| Cc1ccccc1NCc1nc2ccccc2n1Cc1ccccc1 | -6.6 |
| Oc1ccc(Nc2nc(-c3ccccn3)cs2)cc1 | -19.8 |
| CCN(CC)S(=O)(=O)c1ccc(C(=O)Nc2nnc(C3CC3)o2)cc1 | -2.79 |
| Oc1cccc2ccc(Nc3ccccn3)nc12 | -10.8 |
| O=C(O)c1c[nH]c2ccc(S(=O)(=O)N3CCCCC3c3cccnc3)cc2c1=O (stereo not drawn) | -8.4 |
| O=C(c1ccc2c(c1)N(Cc1ccccc1)CCS2)N1CCN(Cc2ccccc2)CC1 | -0.838 |
| O=C(Nc1c2c(nc3c1CCC3)CCCC2)c1ccccn1 | -11.5 |
| Cc1cccc2nc(-c3ccccn3)c(Nc3ccc4c(c3)OCO4)n12 | -21.6 |
| O=C(Nc1nc(-c2ccccn2)cs1)c1ccc(S(=O)(=O)N2CCOCC2)cc1 | -18.2 |
| O=C(c1ccc(C#Cc2ccccc2)o1)N1CCN(c2ccccn2)CC1 | -5.28 |
| COc1ccc(-c2cn(-c3ccc(F)cc3)c(SCC(=O)Nc3cccc(F)c3)n2)cc1OC | -4.67 |
| CCCCN(CC)S(=O)(=O)c1ccc(C(=O)Nc2nnc(C3CC3)o2)cc1 | -1.67 |
| Cc1ccc(-c2nc3ccccn3c2Nc2ccc3c(c2)OCO3)cc1 | -5.21 |
| COc1ccc(Cc2noc(-c3cc(-c4ccncc4)nc4ccccc34)n2)cc1 | -5.79 |
| COc1ccc(-c2csc(Nc3ccc4c(c3)OCO4)n2)cc1Br | -11.7 |
| Cc1ccc(NC(=O)C2c3ccccc3C(=O)N3CCc4ccccc4C23)nc1 (stereo not drawn) | -0.696 |
| COc1cc(/C=C/c2cc(C(F)(F)F)[nH]c(=O)n2)ccc1OCc1ccc(Cl)cc1Cl | -15.8 |
| COc1cccc(-c2nnc(NC(=O)c3ccc(S(=O)(=O)N(C)Cc4ccccc4)cc3)o2)c1 | -15.1 |
| CCOc1ccccc1NC(=O)CSc1nccn1-c1ccc(Cl)cc1 | -2.42 |

| Structure (SMILES) | z-score |
| --- | --- |
| COc1ccccc1C(CCNCc1ccc(OC(C)C)cc1)c1ccc2c(c1)OCO2 (stereo not drawn) | -2.33 |
| CCOC(=O)c1cnc2ccc(OC)cc2c1Nc1ccc(N(C)C)cc1 | -2.61 |
| N#Cc1nc(COc2ccc(Cl)cc2)oc1N1CCCCCC1 | -3.92 |
| Cc1ccc(Nc2nc(-c3ccc(C)c(C)c3)cs2)cc1 | -9.51 |
| O=C(Nc1ccc2c(c1)OCO2)[C@H](Cc1ccccc1)N1Cc2ccccc2C1=O | -1.63 |
| COc1ccc(-c2nc(-c3ccccc3)c(-c3ccc(F)cc3)[nH]2)c(OC)c1C | -0.513 |
| Cc1ccc(C)c(-c2csc(Nc3ccc4c(c3)OCO4)n2)c1 | -7.2 |
| Oc1ccc(-c2nc(-c3ccccc3)c(-c3cccs3)[nH]2)cc1 | -3.34 |
| CCc1cc2c(oc(=O)c3ccccc32)c(CN2CCN(C)CC2)c1O | -12.9 |
| CCCCN1CCCc2cc(CN(CCCN3CCOCC3)C(=O)Nc3ccc(CC)cc3)ccc21 | -15.1 |
| Cc1cccc(Nc2nc(-c3ccccn3)cs2)c1 | -16.6 |
| COc1ccc(-c2csc(Nc3ccc(N)cc3)n2)cc1 | -7.5 |
| Cc1nc(C)c(-c2csc(Nc3ccccc3)n2)s1 | -10.3 |
| COc1ccc(OCCCCCCc2c(C)n[nH]c2C)cc1 | -20.2 |
| Cc1ccc([N+](=O)[O-])cc1-c1[nH]c(-c2ccc(F)cc2)nc1-c1ccccc1 | -0.518 |
| CCCN1CCCc2cc(CN(CCCOC)C(=O)Nc3ccc(OCC)cc3)ccc21 | -15.1 |
| CCCC(=O)NC(c1cccs1)c1cc(Cl)c2cccnc2c1O (stereo not drawn) | -2.57 |
| COc1cc(OC)cc(C(=O)Nc2nc(-c3ccccn3)cs2)c1 | -18.2 |
| Cc1cccc(N2CCN(C(=O)c3cc(-c4ccncc4)nc4ccccc34)CC2C)c1 (stereo not drawn) | -6.7 |
| N#Cc1nc(COc2ccccc2F)oc1N1CCN(c2ccccc2)CC1 | -6.59 |
| CC1CCCCN1S(=O)(=O)c1ccc(C(=O)Nc2nnc(C3CC3)o2)cc1 (stereo not drawn) | -2.8 |
| CCc1ccc(C(=O)CC2(O)C(=O)N(Cc3ccccc3C)c3ccccc32)cc1 (stereo not drawn) | -6.91 |

| Structure (SMILES) | z-score |
| --- | --- |
| Cc1nnc(NC(=O)c2ccc(S(=O)(=O)N3CCCCC3)cc2)o1 | -1.3 |
| Cc1cc2ncn(CC(O)COCc3ccccc3)c2cc1C (stereo not drawn) | -17.9 |
| Cc1ccn2c(NC3CCCC3)c(-c3ccccn3)nc2c1 | -15.2 |
| CCC(=C(c1ccc(OC)cc1)c1ccc(OC)cc1)c1cn(CCN(C)C)c2ccccc12 | -4.24 |
| C=CCN(CC=C)S(=O)(=O)c1ccc(C(=O)Nc2nnc(COC)o2)cc1 | -1.62 |
| Cc1cc(C)n(-c2nc3ccccc3nc2Nc2ccc(N3CCCCC3)cc2)n1 | -20.7 |
| COc1ccc(NC2c3ccccc3C(=O)N2c2ccc(Cl)cc2)cc1 (stereo not drawn) | -15.7 |
| CCCCn1cnc2cc(NCc3cccc(OC)c3)ccc21 | -18.5 |
| Cc1ccc(Nc2c(-c3ccccn3)nc3cccc(C)n23)cc1 | -21.6 |
| COCCN(CCOC)S(=O)(=O)c1ccc(C(=O)Nc2nnc(C)o2)cc1 | -1.32 |
| Brc1cccc(-c2nc3ccccn3c2Nc2ccc3c(c2)OCCO3)c1 | -4.51 |
| CC1CCCCN1S(=O)(=O)c1ccc(C(=O)Nc2nc(-c3ccccn3)cs2)cc1 (stereo not drawn) | -26.2 |
| O=C(CC(Sc1cccc2cccnc12)c1ccc(F)cc1)c1cccs1 (stereo not drawn) | -3.92 |
| Cc1cccc(NC(=O)CSc2nccn2-c2ccc(Cl)cc2)c1C | -1.97 |
| CCN1CCCc2cc(CN(C(=O)Nc3ccc(C)c(C)c3)C3CCCC3)ccc21 | -8.78 |
| Cc1cccc(-n2c(-c3ccccc3F)nc3c(cnn3-c3ccccc3)c2=O)c1 | -20.4 |
| O=C(Nc1ccc2oc(-c3ccccc3Cl)nc2c1)c1ncn[nH]1 | -27.2 |
| Cc1cccc2nc(-c3ccccn3)c(Nc3ccc(F)cc3)n12 | -25.1 |
| CCc1ccc(NC(=O)N(Cc2ccc3c(c2)CCCN3CC)C2CCCC2)cc1 | -10.3 |
| CCc1nnc(NC(=O)c2ccc(S(=O)(=O)N3CCCCCC3)cc2)o1 | -10.6 |
| O=C(Nc1ncn[nH]1)c1ccccc1O | -37.5 |
| CN(c1ccccc1)S(=O)(=O)c1ccc(C(=O)Nc2nnc(-c3ccc(Cl)s3)o2)cc1 | -6.88 |

| Structure (SMILES) | z-score |
| --- | --- |
| CCOC(=O)c1cnc2ccc(OCC)cc2c1N1CCN(c2ccccc2OC)CC1 | -0.605 |
| COc1cc(Nc2nc(-c3ccc(C4CCCCC4)cc3)cs2)c(OC)cc1Cl | -5.97 |
| COc1ccccc1CNc1nc(-c2ccccc2F)nc2ccccc12 | -0.894 |
| CCc1ccc2oc(-c3cccc(NC(=O)c4ncn[nH]4)c3)nc2c1 | -16.9 |
| CCOC(=O)c1cnc2c(C(F)(F)F)cccc2c1Nc1ccc(N(C)C)cc1 | -38.1 |
| Cc1ccc(Nc2nc(-c3sc(N)nc3C)cs2)cc1 | -12.2 |
| CCc1nnc(NC(=O)c2ccc(S(=O)(=O)N(CC)c3ccccc3)cc2)o1 | -1.61 |
| COc1cccc(-c2nc(-c3ccccc3)c(-c3cccs3)[nH]2)c1OC | -0.569 |
| CCOC(=O)c1ccc(Nc2nnc(C(C)(C)C)c(=O)[nH]2)cc1 | -8.71 |
| CCCCN(CCCC)S(=O)(=O)c1ccc(C(=O)Nc2nnc(CC)o2)cc1 | -10.5 |
| CCc1nc(C)ccc1OCC(=O)NCCCN(C)C | -11.2 |
| CCN(CCCNC(=O)CCc1nc(-c2ccc(OC)cc2)no1)c1cccc(C)c1 | -12.5 |
| Cc1nc(C)c(-c2csc(Nc3ccc(N(C)C)cc3)n2)s1 | -18.8 |
| COc1ccccc1Nc1nc(-c2ccncc2)nc2ccccc12 | -0.668 |
| CCOc1ccccc1NC(=O)CSc1nccn1-c1cccc(OC)c1 | -0.688 |
| O=C1CC(NCCc2ccccn2)C(=O)N1c1ccc(Cl)cc1 (stereo not drawn) | -12.8 |
| COc1ccc(Br)cc1CNC(=O)CCCc1cn(C)c2ccccc12 | -10.1 |
| O=c1c(-c2cc(Br)ccc2NCc2ccccc2)nc2ccccc2n1Cc1ccccc1 | -9.12 |
| COc1ccc(Nc2ncc(C(=O)Nc3cccc(Cl)c3)c3ccccc23)cc1 | -13.5 |
| COc1ccc(-c2nc(-c3ccccc3F)[nH]c2-c2ccc(OC)cc2)cc1 | -0.531 |

Source: PubChem BioAssay AID1224903 (Bradner/Qi Labs at DFCI, 2016)
